Experimental data from the supplement of paper PMC11417369.
± gives the standard deviation of the averaged measurements. Some of the results follow.

Tested on: PfAP2-I AP2 domain 3 (GST-tagged)
Test: gcPBM binding intensity (ln(normalized median fluorescence intensity)); higher = stronger DNA binding
Outline: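 The highest Masliner-normalised natural-log median intensity across replicate spots of either probe orientation is reported as binding intensity. GST-tagged P. falciparum DNA-binding domains expressed in E. coli were applied for 1 h to an Agilent 4 × 180k array of primer-extended double-stranded 36-bp intergenic genomic probes plus negative controls, and bound protein was detected with Alexa488 anti-GST antibody and scanned at 488 nm.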

Sequence | gcPBM binding intensity (ln)
ATATATATTATATATGCATGCCAAATCTTTATAAAC [TGCATGCA_site1042] | 7.92 ± 0.69
ACATATATATATATATATATATATATATATAGATAG [CACACA_negctrl_site783] | 8.66 ± 0.31
ATAAAGAAATTACACACATGCAATGAAAAAAAAAAA [TGCATGCA_site406] | 8.23 ± 1
ACAAAAAAATATTTATGTACTTATTATATTTATAAT [XGTACX_site2059] | 7.71 ± 0.37
CTTTTTACTTAATACACACACACACTAAAAAAAAAA [CACACA_site6574] | 8.39 ± 0.2
AAAACTAAATGTTATTCGCACACGGAATTTATTTAA [CACACA_site9221] | 8.01 ± 0.47
ATAAAATGATGTATCTGTGTATGTTTATTTTGTTTT [XGTACX_negctrl_site367] | 7.46 ± 0.45
ATTATATACAAATAAAGTACATAAACAAATTCAGAA [XGTACX_site1187] | 7.77 ± 0.47
TATTTCAAACTGTTCTCACACACGAAATTAGAAATG [CACACA_site611] | 7.57 ± 0.66
ATTCCAGAAATATATTAACAAGGAAAATATAAAAAT [CACACA_negctrl_site343] | 7.64 ± 0.77
TTTTGAATATGGATCTTATATATATTAAATAAATAA [CACACA_negctrl_site344] | 7.24 ± 0.47
TTGAGCCTACAAAAGGGTACACATTCAATTTATTTT [XGTACX_site6570] | 7.62 ± 0.52
AAAAAAAAAAGAAATTGTACTTTTTGTTTAATAATT [XGTACX_site4681] | 7.42 ± 0.66
ATATTTTGTTATGAAACACACACATATATATATATA [CACACA_site9216] | 9.32 ± 0.59
AAACTGAAAAAAATATGTACATATTTATATCTTATA [XGTACX_site3011] | 7.66 ± 0.31
TAAAGCAACTGAAACACACAAATTTTTTTTTTTTTT [CACACA_site7499] | 7.79 ± 0.76
ATTGTATAAAAATGTACATGCAATAAATTTAGTTCT [TGCATGCA_site675] | 8.03 ± 0.58
GAAACGTTTTTTCAGTGTACATTTTACCGATTTGTA [XGTACX_site8249] | 7.88 ± 0.6
TAGTATAATATATATTGTACGTTTTAATTGTTTATA [XGTACX_site2731] | 7.61 ± 0.11
AAAAAAAAAAAACACACACACAAATACAAATACATA [CACACA_site415] | 7.82 ± 0.38
ATATAATGAAGTGAATGTACATATAAAATGTAAAAA [XGTACX_site8052] | 7.85 ± 0.76
ATATAACATTGTTTTGCATGTAAATATTCAATTTTT [TGCATGCA_site758] | 7.57 ± 0.61

Sequence | gcPBM binding intensity (ln)
TCAAATTTAATCATAACACACATTCACATATGAATT [CACACA_site3199] | 7.44 ± 0.61
TTTTTATAAATAATAAGGCGTATGAAAATAAAATAA [TGCATGCA_negctrl_site421] | 7.82 ± 0.65
TCAAAATATCCAAAAGAATAAAGAAAAAAAAAAAGA [CACACA_negctrl_site1377] | 7.5 ± 0.41
TATATATATATTTAATGTACATGTTTATTTTATCAT [XGTACX_site499] | 8.975 ± 0.007
AATAAAATAAAAAAAAATAAAAAAAAAATAAAAAAT [XGTACX_negctrl_site245] | 7.54 ± 0.45
TTTATAAAGGGAAAGGTGCAAAAGGTGAAAGTTTTA | 10.9 ± 0.44
TATTTTTCTTTTTAAGTGCATGGTTGTATAAAATTT [GTGCAC_site9480] | 8.63 ± 0.69
TCTTTTTTGAAGCATTTTGTTTTTTAATAAGTAAAA [TGCATGCA_negctrl_site247] | 7.58 ± 0.59
TATATCAAAAACGAGACATGCATGCCGTTCATTTTG [TGCATGCA_site211] | 7.29 ± 0.7
GAGTTTATATTTTAAGCATGCATATGTTATTATTAT [TGCATGCA_site1049] | 7.75 ± 0.69
TTATTAACGGAACTCTGTACTTAAAAAATTTTAGAA [XGTACX_site8787] | 7.66 ± 0.34
TATATAAGAATATATACACACATATCTGTATTTATA [CACACA_site5231] | 7.59 ± 0.24
AAAAAAACAGAAAACACACAAATTATCTTATAATTA [CACACA_site6282] | 7.29 ± 0.58
ATTGTTTCATTAAAATGTACATAAATTGTGTATAAT [XGTACX_site5341] | 8.12 ± 0.3
ATACTGTATAGTCGCACACAAAAATATAAAATATTT [CACACA_site6004] | 7.92 ± 0.3
AAAATTTGAAAAAGGGGTACTTAATAAAAGTTTCAT [XGTACX_site932] | 7.79 ± 0.53
TTACACAAGGATAAAAACATATGTATGATTATATAT [CACACA_negctrl_site654] | 7.71 ± 0.71
AATAGAAATTATATAAACATAAATGAATAAATAAAT [CACACA_negctrl_site1817] | 7.44 ± 0.59
AGTATTATTTACTGCGCATGCTATTTATATATATTA [TGCATGCA_site876] | 8.4 ± 0.83
AATTAAATGGATAAATGTACATATGTGAATATATTT [XGTACX_site84] | 7.96 ± 0.56
CTACATATGTATAATATGCACACGTCATTTTCCCCT [CACACA_site2107] | 8.82 ± 0.61
AATTATCAGGAATGATGTACTGAAATAAAAAAAAAA [XGTACX_site3280] | 7.96 ± 0.66
